According to the supplement of paper PMC8728848:
Some of the results follow.

Key:
Assay in all cases: glycan array binding signal (z-score within array); higher = stronger binding
Settings in all cases: glycan notation: IUPAC condensed, linker removed
[1] = molecular target: Fuc(a1-2)[GalNAc(a1-3)]Gal(b1-3)GlcNAc(b1-3)GalNAc
In short: (§1)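 The binding signal is a Z-score computed within each array. Data were drawn from 3228 arrays in the Consortium for Functional Glycomics database, restricted to those with a known protein sequence. Scores were averaged over arrays of the same protein sequence at different concentrations or buffers, and over linkers, and negative values can be taken as non-binding.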

[2] = molecular target: Fuc(a1-2)[GalNAc(a1-3)]Gal(b1-3)GlcNAc(b1-6)GalNAc
In short: as §1

[3] = molecular target: Fuc(a1-2)[GalNAc(a1-3)]Gal(b1-4)Glc
In short: as §1

[4] = molecular target: Fuc(a1-2)[GalNAc(a1-3)]Gal(b1-4)GlcNAc
In short: as §1

[5] = molecular target: Fuc(a1-2)[GalNAc(a1-3)]Gal(b1-4)GlcNAc(b1-2)Man
In short: as §1

[6] = molecular target: Fuc(a1-2)[GalNAc(a1-3)]Gal(b1-4)GlcNAc(b1-2)Man(a1-3)[Fuc(a1-2)[GalNAc(a1-3)]Gal(b1-4)GlcNAc(b1-2)Man(a1-6)]Man(b1-4)GlcNAc(b1-4)GlcNAc
In short: as §1

[7] = molecular target: Fuc(a1-2)[GalNAc(a1-3)]Gal(b1-4)GlcNAc(b1-2)Man(a1-3)[Fuc(a1-2)[GalNAc(a1-3)]Gal(b1-4)GlcNAc(b1-2)Man(a1-6)]Man(b1-4)GlcNAc(b1-4)[Fuc(a1-6)]GlcNAc
In short: as §1

[8] = molecular target: Fuc(a1-2)[GalNAc(a1-3)]Gal(b1-4)GlcNAc(b1-3)Gal(b1-4)GlcNAc
In short: as §1

[9] = molecular target: Fuc(a1-2)[GalNAc(a1-3)]Gal(b1-4)GlcNAc(b1-3)Gal(b1-4)GlcNAc(b1-3)Gal(b1-4)GlcNAc
In short: as §1

[10] = molecular target: Fuc(a1-2)[GalNAc(a1-3)]Gal(b1-4)GlcNAc(b1-3)GalNAc
In short: as §1

[11] = molecular target: Fuc(a1-2)[GalNAc(a1-3)]Gal(b1-4)GlcNAc(b1-3)[Fuc(a1-2)[GalNAc(a1-3)]Gal(b1-4)GlcNAc(b1-6)]GalNAc
In short: as §1

[12] = molecular target: Fuc(a1-2)[GalNAc(a1-3)]Gal(b1-4)GlcNAc(b1-6)GalNAc
In short: as §1

[13] = molecular target: Fuc(a1-2)[GalNAc(a1-3)]Gal(b1-4)[Fuc(a1-3)]GlcNAc
In short: as §1

[14] = molecular target: Fuc(a1-2)[GalNAc(a1-3)]Gal(b1-4)[Fuc(a1-3)]GlcNAc(b1-3)GalNAc
In short: as §1

[15] = molecular target: Fuc(a1-2)[GalNAc(a1-4)]Gal(b1-4)GlcNAc
In short: as §1

[16] = molecular target: Fuc(a1-2)[GalNAc(b1-3)]Gal
In short: as §1

Fuc(a1-3)GlcNAc = molecular target: Fuc(a1-3)GlcNAc
In short: as §1

[17] = molecular target: Fuc(a1-3)[Gal(b1-4)]Glc6S
In short: as §1

[18] = molecular target: Fuc(a1-3)[Gal(b1-4)]GlcNAc
In short: as §1

[19] = molecular target: Fuc(a1-3)[Gal(b1-4)]GlcNAc(b1-2)Man
In short: as §1

[20] = molecular target: Fuc(a1-3)[Gal(b1-4)]GlcNAc(b1-2)Man(a1-3)[Fuc(a1-3)[Gal(b1-4)]GlcNAc(b1-2)Man(a1-6)]Man(b1-4)GlcNAc(b1-4)GlcNAc
In short: as §1

[21] = molecular target: Fuc(a1-3)[Gal(b1-4)]GlcNAc(b1-2)Man(a1-3)[Fuc(a1-3)[Gal(b1-4)]GlcNAc(b1-2)Man(a1-6)]Man(b1-4)GlcNAc(b1-4)[Fuc(a1-6)]GlcNAc
In short: as §1

[22] = molecular target: Fuc(a1-3)[Gal(b1-4)]GlcNAc(b1-3)Gal(b1-3)[Fuc(a1-4)]GlcNAc
In short: as §1

[23] = molecular target: Fuc(a1-3)[Gal(b1-4)]GlcNAc(b1-3)Gal(b1-4)[Fuc(a1-3)]GlcNAc
In short: as §1

[24] = molecular target: Fuc(a1-3)[Gal(b1-4)]GlcNAc(b1-3)Gal(b1-4)[Fuc(a1-3)]GlcNAc(b1-3)Gal(b1-4)[Fuc(a1-3)]GlcNAc
In short: as §1

[25] = molecular target: Fuc(a1-3)[Gal(b1-4)]GlcNAc(b1-3)GalNAc
In short: as §1

[26] = molecular target: Fuc(a1-3)[Gal(b1-4)]GlcNAc(b1-6)GalNAc
In short: as §1

[27] = molecular target: Fuc(a1-3)[Gal(b1-4)]GlcNAc(b1-6)[Gal(b1-3)GlcNAc(b1-3)]Gal(b1-4)Glc
In short: as §1

[28] = molecular target: Fuc(a1-3)[Gal(b1-4)]GlcNAc6S
In short: as §1

[29] = molecular target: Fuc(a1-3)[Gal3S(b1-4)]Glc
In short: as §1

[30] = molecular target: Fuc(a1-3)[Gal3S(b1-4)]GlcNAc
In short: as §1

[31] = molecular target: Fuc(a1-3)[Gal3S(b1-4)]GlcNAc6S
In short: as §1

[32] = molecular target: Fuc(a1-3)[GalNAc(b1-4)]GlcNAc
In short: as §1

[33] = molecular target: Fuc(a1-3)[GalNAc(b1-4)]GlcNAc6S
In short: as §1

Fuc(a1-4)GlcNAc = molecular target: Fuc(a1-4)GlcNAc
In short: as §1

Fuc(b1-3)GlcNAc = molecular target: Fuc(b1-3)GlcNAc
In short: as §1

Gal(a1-2)Gal = molecular target: Gal(a1-2)Gal
In short: as §1

B1: Als3-41 (Candida albicans) (protein)
chain: KTITGVFNSFNSLTWSNAATYNYKGPGTPTWNAVLGWSLDGTSASPGDTFTLNMPCVFKFTTSQTSVDLTAHGVKYATCQFQAGEEFMTFSTLTCTVSNTLTPSIKALGTVTLPLAFNVGGTGSSVDLEDSKCFTAGTNTVTFNDGGKKISINVDFERSNVDPKGYLTDSRVIPSLNKVSTLFVAPQCANGYTSGTMGFANTYGDVQIDCSNIHVGITKGLNDWNYPVSSESFSYTKTCSSNGIFITYKNVPAGYRPFVDAYISATDVNSYTLSYANEYTCAGGYWQRAPFTLRWTGYRNSDAGSNGIVIVATTRTVTDSTTAVTTLPFDPNRDKTKTIEILKPIPTTTITTSYVGVTTSYLTKTAPIGETATVIVD
glycan array binding signal (z-score) [1]: 0.208 | glycan array binding signal (z-score) [2]: -0.242 | glycan array binding signal (z-score) [3]: -0.257 | glycan array binding signal (z-score) [4]: -0.323 | glycan array binding signal (z-score) [5]: -0.243 | glycan array binding signal (z-score) [6]: -0.319 | glycan array binding signal (z-score) [7]: -0.001 | glycan array binding signal (z-score) [8]: -0.321 | glycan array binding signal (z-score) [9]: 1.63 | glycan array binding signal (z-score) [10]: -0.251 | glycan array binding signal (z-score) [11]: -0.047 | glycan array binding signal (z-score) [12]: -0.001 | glycan array binding signal (z-score) [13]: 0.032 | glycan array binding signal (z-score) [14]: 0.369 | glycan array binding signal (z-score) [15]: -0.181 | glycan array binding signal (z-score) [16]: -0.159 | glycan array binding signal (z-score) (Fuc(a1-3)GlcNAc): -0.123 | glycan array binding signal (z-score) [17]: 0.208 | glycan array binding signal (z-score) [18]: -0.198 | glycan array binding signal (z-score) [19]: -0.251 | glycan array binding signal (z-score) [20]: 1.07 | glycan array binding signal (z-score) [21]: 0.268 | glycan array binding signal (z-score) [22]: -0.315 | glycan array binding signal (z-score) [23]: -0.121 | glycan array binding signal (z-score) [24]: -0.317 | glycan array binding signal (z-score) [25]: 0.174 | glycan array binding signal (z-score) [26]: 0.223 | glycan array binding signal (z-score) [27]: -0.342 | glycan array binding signal (z-score) [28]: 0.9 | glycan array binding signal (z-score) [29]: 0.118 | glycan array binding signal (z-score) [30]: -0.125 | glycan array binding signal (z-score) [31]: 1.6 | glycan array binding signal (z-score) [32]: -0.075 | glycan array binding signal (z-score) [33]: 0.113 | glycan array binding signal (z-score) (Fuc(a1-4)GlcNAc): 7.63 | glycan array binding signal (z-score) (Fuc(b1-3)GlcNAc): -0.1 | glycan array binding signal (z-score) (Gal(a1-2)Gal): -0.006
